Measured values from the supplement of paper PMC10670038.
Counter-ions that a name gives are not always drawn. ± gives the standard deviation of the averaged measurements. Over roughly 2,000 compounds, “relative cell viability vs DMSO, compound alone” has its median near 1.1; the lowest 2% begin near 0.29. This is one part of the list.

Tested on: TE10
Assay: relative cell viability vs DMSO, compound alone (fraction); TE10 is an esophageal squamous carcinoma line; higher = less cytotoxic
Conditions: 2 µM; 48 h
Experimental: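 TE10 ESCC cells (1,000/well, 384-well plates) were treated with Selleck bioactive library compounds at 2 uM alone for 48 h. Viability was read by CellTiter-Glo and expressed relative to DMSO wells. Two technical replicates (A, B).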

SMILES | relative cell viability
C=CCc1cccc(/C=N/NC(=O)CN2CCN(Cc3ccccc3)CC2)c1O | 1.075 ± 0.0097
CC(NC(=O)C(Cc1ccccc1)NC(=O)OCc1ccccc1)C(=O)CF (stereo unspecified) | 1.14 ± 0.064
CC(C(=O)O)c1ccc2c(c1)[nH]c1ccc(Cl)cc12 (stereo unspecified) [Carprofen] | 0.964 ± 0.032
O=C(Nc1cccc(C(F)(F)F)c1)Nc1cc(S(=O)(=O)NC2CC2)ccc1-c1ccsc1 | 0.982 ± 0.031
O=C1c2c(O)cccc2C([C@@H]2O[C@H](CO)[C@@H](O)[C@H](O)[C@H]2O)c2cc(CO)cc(O)c21 (stereo partly specified) [Aloin] | 1.09 ± 0.025
Cc1cc(/C=C/C#N)cc(C)c1Nc1ccnc(Nc2ccc(C#N)cc2)n1 [Rilpivirine] | 1.1 ± 0.016
C=C1C(=O)[C@]23[C@H](O)[C@H]1CC[C@H]2[C@@]12CO[C@]3(O)[C@@H](O)[C@@H]1C(C)(C)CC[C@@H]2O [Oridonin] | 1.1 ± 0.034
CCOc1cc2ncc(C#N)c(Nc3ccc(F)c(Cl)c3)c2cc1NC(=O)/C=C/CN(C)C [Pelitinib (EKB-569)] | 0.677 ± 0.13
Cc1c(N(C)C)c(=O)n(-c2ccccc2)n1C [Amidopyrine] | 1.14 ± 0.022
CCN(CC)CCNC(=O)c1c(C)[nH]c(/C=C2\C(=O)Nc3ccc(F)cc32)c1C [Sunitinib] | 1 ± 0.095
CCN(CC)CCNC(=O)c1c(C)[nH]c(/C=C2\C(=O)Nc3ccc(F)cc32)c1C [Sunitinib Malate] | 1.11 ± 0.037
COc1ccc(/C=C/C(=O)Nc2ccccc2C(=O)O)cc1OC [Tranilast] | 1.25 ± 0.077
COc1ccc(C2=NC(c3ccc(Cl)cc3)C(c3ccc(Cl)cc3)N2C(=O)N2CCNC(=O)C2)c(OC(C)C)c1 (stereo unspecified) [Nutlin-3b] | 1.2 ± 0.044
COc1ccc(C2=NC(c3ccc(Cl)cc3)C(c3ccc(Cl)cc3)N2C(=O)N2CCNC(=O)C2)c(OC(C)C)c1 (stereo unspecified) [Nutlin-3a] | 1.16 ± 0.0017
CCOC(=O)C1=C(COCCN)NC(C)=C(C(=O)OC)C1c1ccccc1Cl (stereo unspecified) [Amlodipine besylate (Norvasc)] | 0.9751 ± 0.0056
CCOC(=O)C1=C(COCCN)NC(C)=C(C(=O)OC)C1c1ccccc1Cl (stereo unspecified) [Amlodipine] | 1.09 ± 0.017
Cc1ncc(CCCN(C)C)cc1Nc1ncc2c(n1)-c1ccc(C(F)(F)F)cc1NC(=S)C2 | 1 ± 0.073
Oc1ccc(/C=C/c2cc(O)cc(O)c2)cc1 [Resveratrol] | 0.959 ± 0.017
CN1[C@@H]2CC[C@H]1C[C@@H](OC(=O)c1c[nH]c3ccccc13)C2 [Tropisetron] | 0.99342 ± 0.00029
Cc1cccc(C)c1OCC(C)N (stereo unspecified) [Mexiletine HCl] | 1.03 ± 0.04
COc1ccccc1OCC(O)CO (stereo unspecified) [Guaifenesin] | 0.9417 ± 0.0054
Nc1nc(CC(=O)Nc2ccc(CCNC[C@H](O)c3ccccc3)cc2)cs1 [Mirabegron] | 0.954 ± 0.11
CC[C@]1(O)C[C@H]2CN(CCc3c([nH]c4ccccc34)[C@@](C(=O)OC)(c3cc4c(cc3OC)N(C=O)[C@H]3[C@@](O)(C(=O)OC)[C@H](OC(C)=O)[C@]5(CC)C=CCN6CC[C@]43[C@@H]65)C2)C1 [Vincristine] | 0.74 ± 0.16

SMILES | relative cell viability
CC(=O)[C@H]1CC[C@H]2[C@@H]3C=CC4=CC(=O)CC[C@@]4(C)[C@@H]3CC[C@]12C [Dydrogesterone] | 0.971 ± 0.21
Cc1cc(=O)[nH]c(=S)[nH]1 [Methylthiouracil] | 1.19 ± 0.059
COc1ccccc1Oc1c(NS(=O)(=O)c2ccc(C(C)(C)C)cc2)nc(-c2ncccn2)nc1OCCO [Bosentan] | 1.1 ± 0.021
COc1ccccc1Oc1c(NS(=O)(=O)c2ccc(C(C)(C)C)cc2)nc(-c2ncccn2)nc1OCCO [Bosentan Hydrate] | 1.07 ± 0.076
COc1cc(N2CCC(N(C)C)CC2)ccc1Nc1ncc(Cl)c(Nc2ccccc2P(C)(C)=O)n1 | 0.862 ± 0.044
COc1cc2c(Oc3ccc(NC(=O)C4(C(=O)Nc5ccc(F)cc5)CC4)cc3F)ccnc2cc1OCCCN1CCOCC1 | 0.506 ± 0.04
C[S+]([O-])c1ccc(-c2nc(-c3ccc(F)cc3)c(-c3ccncc3)[nH]2)cc1 (stereo unspecified) | 1.31 ± 0.085
CN1CCC[C@@H]1Cc1c[nH]c2ccc(CCS(=O)(=O)c3ccccc3)cc12 [Eletriptan HBr] | 0.802 ± 0.024
CCC[C@@H]1C[C@@H](C(=O)N[C@@H]([C@H]2O[C@H](SC)[C@H](O)[C@@H](O)[C@H]2O)[C@H](C)Cl)N(C)C1 [Clindamycin HCl] | 1.1243 ± 0.00035
CCC[C@@H]1C[C@@H](C(=O)N[C@@H]([C@H]2O[C@H](SC)[C@H](O)[C@@H](O)[C@H]2O)[C@H](C)Cl)N(C)C1 [Clindamycin] | 1.1187 ± 0.00023
CO[C@H]1/C=C\C=C(/C)C(=O)NC2=CC(=O)C(NCCN(C)C)=C(C[C@@H](C)C[C@H](OC)[C@H](O)[C@@H](C)/C=C(\C)[C@@H]1OC(N)=O)C2=O [17-DMAG (Alvespimycin) HCl] | 0.535 ± 0.043
O=C(N[C@H](CO)[C@H](O)c1ccc([N+](=O)[O-])cc1)C(Cl)Cl [Chloramphenicol] | 1.021 ± 0.0098
O=C(O)CCNC(=O)c1ccccc1 [Betamipron] | 1.08 ± 0.022
C=C1/C(=C\C=C2/CCC[C@]3(C)[C@@H]([C@H](C)CCCC(C)C)CC[C@@H]23)C[C@@H](O)C[C@@H]1O [Alfacalcidol] | 1.15 ± 0.056
CCOc1ccc2ccccc2c1C(=O)N[C@@H]1C(=O)N2[C@@H]1SC(C)(C)[C@@H]2C(=O)O [Nafcillin Sodium] | 1.02 ± 0.25
CCN(CC)CCNC(=O)c1cc(Cl)c(N)cc1OC [MetoclopraMide HCl] | 1.16 ± 0.024
CC1=NN(c2ccccc2)C(=O)C1 [Edaravone] | 1.22 ± 0.066
COc1ccc(O)cc1 [Mequinol] | 1.12 ± 0.06
Cc1ccc(-c2nn(C(C)(C)C)c3ncnc(N)c23)cc1 | 1.03 ± 0.058
CCCCCCOC(=O)NC(=N)c1ccc(NCc2nc3cc(C(=O)N(CCC(=O)OCC)c4ccccn4)ccc3n2C)cc1 [Dabigatran Etexilate] | 0.99 ± 0.045
NC(=O)c1cccc(-c2cc(Nc3ccc(OC(F)(F)F)cc3)ncn2)c1 | 1.06 ± 0.067
CCN(CC)CCOC(=O)c1ccc(N)cc1Cl [Chloroprocaine HCl] | 1.15 ± 0.027
CC1(C)O[C@H]2CC(=O)OC[C@]23[C@H]2CC[C@@]4(C)[C@H](c5ccoc5)OC(=O)[C@H]5O[C@]54[C@]2(C)C(=O)C[C@@H]13 [Limonin] | 1.125 ± 0.0024
